Data: publication PMC4336329 (PLoS ONE, 2015)
In all, about 310,000 compounds went through this assay and about 14,000 (4.5%) showed an effect of 50% or more. Effects have a minus sign here. The list shows a part of the results.

Target: human ether-à-go-go-related gene (hERG) potassium channel (human, UniProt Q12809)
Test: primary screen, population patch clamp on CHO cells stably expressing hERG
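Further: peak tail current of the secondary pulse compared with the same well before compound.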

Chain of human ether-à-go-go-related gene (hERG) potassium channel (Q12809 whole entry, looked up): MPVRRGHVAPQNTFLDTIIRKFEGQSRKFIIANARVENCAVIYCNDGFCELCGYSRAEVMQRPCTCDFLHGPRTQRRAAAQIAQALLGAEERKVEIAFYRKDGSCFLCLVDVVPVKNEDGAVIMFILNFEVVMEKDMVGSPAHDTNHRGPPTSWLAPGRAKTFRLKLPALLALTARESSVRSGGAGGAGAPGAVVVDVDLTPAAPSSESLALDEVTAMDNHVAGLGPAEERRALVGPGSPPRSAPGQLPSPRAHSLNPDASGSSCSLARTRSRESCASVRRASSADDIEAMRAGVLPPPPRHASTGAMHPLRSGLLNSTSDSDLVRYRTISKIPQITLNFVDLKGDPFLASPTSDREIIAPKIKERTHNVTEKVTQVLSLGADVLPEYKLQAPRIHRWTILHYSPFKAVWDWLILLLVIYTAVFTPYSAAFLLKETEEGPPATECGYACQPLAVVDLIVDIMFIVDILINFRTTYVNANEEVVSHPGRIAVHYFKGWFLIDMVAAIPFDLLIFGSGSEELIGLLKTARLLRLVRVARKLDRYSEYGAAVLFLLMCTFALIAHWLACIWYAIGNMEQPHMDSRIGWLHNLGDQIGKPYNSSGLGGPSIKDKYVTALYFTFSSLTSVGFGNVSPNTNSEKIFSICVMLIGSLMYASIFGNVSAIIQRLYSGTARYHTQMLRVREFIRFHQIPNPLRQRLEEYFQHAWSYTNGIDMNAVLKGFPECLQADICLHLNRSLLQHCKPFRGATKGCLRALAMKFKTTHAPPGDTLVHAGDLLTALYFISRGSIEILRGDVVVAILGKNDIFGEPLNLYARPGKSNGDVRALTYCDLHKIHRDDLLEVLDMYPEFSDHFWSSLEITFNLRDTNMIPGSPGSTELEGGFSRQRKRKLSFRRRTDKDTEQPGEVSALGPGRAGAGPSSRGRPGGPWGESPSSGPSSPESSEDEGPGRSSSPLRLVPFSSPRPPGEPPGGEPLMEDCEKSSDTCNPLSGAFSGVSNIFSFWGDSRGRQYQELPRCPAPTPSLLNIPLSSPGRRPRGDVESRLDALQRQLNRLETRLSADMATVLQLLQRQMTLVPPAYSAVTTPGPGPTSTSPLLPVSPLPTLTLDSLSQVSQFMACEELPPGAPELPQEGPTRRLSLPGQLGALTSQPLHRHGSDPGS

SMILES	hERG current change (%, negative = inhibition) at 10uM
Cc1ccc(-c2nc(NC(=O)CSc3nnc(C)s3)ns2)cc1	-0.516%
C[C@]12CCC3C(CC[C@H]4CC(O)CC[C@]34C)C1CC/C2=N/O (some centres unmarked)	13.3%
O=C(NCc1ccccc1)c1ccc(Cl)nc1	-22.9%
COc1cc(OC)c(-c2nc3cnccc3n2C)cc1OC	6.5%
[O-]/C(=C(\C(=S)Nc1cccc2ccccc12)[n+]1ccccc1)c1cccs1	22.8%
COc1ccc(-n2c(Cc3cccn3C)nnc2SCC(=O)Nc2ccccc2OC)cc1	-38.5%
CCOc1ccc(CNC(=O)CCCn2nc(C)c3c(C)n(-c4ccc(C)cc4)nc3c2=O)cc1	-1.85%
O=C(c1ccccc1)c1cnc[nH]1	-4.4%
CCCCc1ccc(N/C(N)=N/c2nc(C)cc(C)n2)cc1	-70.1%
COc1ccc(NC(=O)CSc2nc3ccsc3c(=O)n2Cc2ccccn2)c(OC)c1	-22.7%
Clc1ccccc1-c1ncnc2ccc(Br)cc12	-15.7%
Cc1cccc(C)c1NC(=O)CCS(=O)(=O)c1cccc2nsnc12	-4.59%
COc1ccc2[nH]c(C)c(CCN(Cc3cccs3)C(=S)Nc3cccc(F)c3)c2c1	14.2%
O=[N+]([O-])c1ccc(N2CCCCCC2)c2nonc12	-10%
CC1CC(C)(C)NC(=S)N1CCCC(=O)NCc1ccccc1 (centres unmarked)	15.2%
CCc1ccc2[nH]c(C(=O)N(C)c3ccc(F)cc3F)cc2c1	20.9%
Cc1ccccc1C(=O)N1CCN=C1SCc1ccc([N+](=O)[O-])cc1	-63.6%
CN1C(=O)c2ccccc2C(C(=O)NCC2CCCO2)C1c1c[nH]c2ccccc12 (centres unmarked)	5.25%
O=C(Nc1ccc2nc3n(c(=O)c2c1)CCCC3)c1cc([N+](=O)[O-])ccc1F	-44.8%
COc1ccc(-n2nnnc2/C(=C/N(C)C)C(=O)c2ccccc2)cc1	-4.92%
COc1ccc(OC)c(S(=O)(=O)NCC(c2ccc(F)cc2)N2CCN(C)CC2)c1 (centres unmarked)	-33.8%
CCOC(=O)c1sc(NC(=O)CSc2nnc(Cc3ccccc3)o2)c(C#N)c1C	18%

SMILES	hERG current change (%, negative = inhibition) at 10uM
CCCC(=O)Oc1ccc(-c2nccc(C(OC)OC)n2)cc1	25.2%
O=C(Nc1nc2ccccc2s1)C1CCN(S(=O)(=O)c2cc([N+](=O)[O-])ccc2Cl)CC1	10.4%
Clc1ccc(-c2nnc3n2CCCS3)cc1	6.34%
Cn1c(=O)[nH]c(=O)c2c1nc(CN1CCN(c3cccc(Cl)c3)CC1)n2CCN1CCOCC1	-35.9%
O=C(Cc1csc(NC(=O)Nc2ccc(Cl)cc2)n1)NCc1cccnc1	-50.8%
CC(=O)Nc1ccc(S(=O)(=O)Nc2nc3nc(-c4ccccc4)cc(-c4ccccc4)n3n2)cc1	18.7%
CC1=C(C(=O)OCC2CCCO2)C(c2coc3ccc(C)cc3c2=O)C2=C(CCCC2=O)N1 (centres unmarked)	-7.31%
CS(=O)(=O)N(CC(=O)Nc1ccccc1-c1ccccc1)c1ccc(F)cc1	-12.3%
Cc1c(NC(=O)c2ccc(C(=O)Nc3c(C)n(C)n(-c4ccccc4)c3=O)cc2)c(=O)n(-c2ccccc2)n1C	20.5%
Cc1ccc(OC(C)C(=O)Nc2ccc(C)c(S(=O)(=O)Nc3ccc(C)cc3C)c2)cc1 (centres unmarked)	11.8%
Cc1ccc(C(=O)OCN2C(=O)c3ccccc3C2=O)o1	11.6%
CC(C)C(=O)Nc1ccc2c(c1)nc(CCN1CCN(c3ccccn3)CC1)n2C	-18.2%
Cl.c1ccc(CCn2nnnc2CN2CCN(C3CCCC3)CC2)cc1	-3.4%
COc1ccc(CCNCc2ccncc2)cc1OC	-6.17%
COC(=O)c1ccc(OCC(O)CN2CCC(C)CC2)cc1 (centres unmarked)	-15.3%
Cc1ccccc1CC(=O)N1CCCC(CNC(=O)c2ccc(F)cc2)C1 (centres unmarked)	-2%
Cc1cc(Br)cc2c(C(=O)NCC3CCCO3)cc(-c3ccccc3)nc12 (centres unmarked)	6.39%
Cn1nccc1C(=O)N1CCCC(Nc2ccc(F)cc2)C1 (centres unmarked)	18.4%
OCCC1CN(Cc2nc3c(s2)CCCC3)CCN1Cc1ccccc1 (centres unmarked)	-22.5%
COc1ccc(-c2nc(CS(=O)CC(=O)NCCCN3CC(C)CC(C)C3)c(C)o2)cc1OC (centres unmarked)	27.6%
O=S(=O)(c1ccc(F)cc1)N1CCCC(c2nc(-c3ccc(F)cc3)no2)C1 (centres unmarked)	-13.9%
CSc1nc2ccccc2c(=O)n1-c1cccnc1	4.84%

SMILES	hERG current change (%, negative = inhibition) at 10uM
CC(C)(C)OC(=O)N[C@@H](Cc1ccccc1)C(=O)N[C@@H](CO)[C@H](O)[C@@H]1C[C@@H]1C(=O)NC1CC1	7.28%
CCOC(=O)c1sc(NC(=O)Cc2ccc(F)cc2)nc1C	-9.81%
Cl.c1ccc(CN2CCN(CCN3CCn4c3nc3ccccc34)CC2)cc1	-75.8%
CCCc1ccc(Oc2c(-c3ccc(O)c(C)c3O)n[nH]c2C)cc1	-13.2%
CC(=O)c1cccc(NC(=O)Cn2nc(-c3ccc(Cl)cc3)ccc2=O)c1	-17.8%
COc1cccc(-c2cc(C(=O)Nc3cnn(Cc4ccc(F)cc4)c3)no2)c1	21.4%
COCc1nnc(NC(=O)c2ccccc2Oc2ccccc2)s1	9.02%
Cc1ccc(C(=O)N2CCC(C(=O)c3c(C)cc(C)cc3C)CC2)cc1	-38.5%
O=C(NCc1ccccc1)NC1(C(=O)N2CCN(c3ncccn3)CC2)CCCCC1	1.22%
O=C(NCCCCNC(=O)c1cccs1)c1cccs1	10.2%
CN(C)S(=O)(=O)N1CCN(c2ccccc2Cl)CC1	-7.02%
O=c1c(-c2ccco2)[n+]([O-])c2ccccc2n1OCc1ccccc1[N+](=O)[O-]	-16.2%
Cc1nc2c(=O)[nH]c3ccccc3c2o1	5.79%
Cc1ccc(N2CC(NC(=O)C(=O)c3c[nH]c4ccccc34)CC2=O)cc1C (centres unmarked)	1.89%
Cc1cc(F)ccc1S(=O)(=O)N1CCCOC1CNC(=O)C(=O)NCCN1CCOCC1 (centres unmarked)	7.34%
CC(=O)Oc1ccc(C(=O)[C@H]2[C@H]3C(=O)N(c4ccc5ccccc5c4)C(=O)[C@H]3[C@@H]3C=CC=NN32)cc1	-12.7%
Cc1ccc(CN2CC(C(=O)Nc3ccc(F)c([N+](=O)[O-])c3)CC2=O)cc1 (centres unmarked)	-16%
CCOC(=O)C1=C(C)OC(N)=C(C#N)C1c1cc2c(cc1[N+](=O)[O-])OCO2 (centres unmarked)	-0.846%
COc1cccc(C2=NOC(C(=O)N3CCN(c4ccccc4)CC3)C2)c1OC (centres unmarked)	-0.252%
Cc1ccc(/C=N/Nc2cc(C)nc(N3CCOCC3)n2)cc1	17.5%
c1ccc(CSc2ccc(-c3ccco3)nn2)cc1	5.6%
COc1cc(NC(=O)CCn2c(=O)oc3ccccc32)cc(OC)c1OC	24%

SMILES	hERG current change (%, negative = inhibition) at 10uM
Cc1ccc(C2CC(=O)C(C=NCCN3CCN(C(=S)Nc4ccccc4)CC3)=C(O)C2)cc1 (centres unmarked)	-26.4%
CCn1c(=O)cc(OCC(=O)N2CCN(C(=O)c3ccco3)CC2)c2ccccc21	-29.7%
Cc1ccc(CSc2nnc(CCCCCNC(=O)OC(C)(C)C)o2)cc1	-18.1%
O=C(CCc1c[nH]c2ccccc12)NCCc1ccc(Cl)cc1	-9.21%
C/C(=N\NC(=O)NC1CCCCC1)c1ccco1	-17%
Cc1ccc(NC(=O)Cc2nc(-c3c[nH]c(C(=O)N4CCCC4)c3)cs2)c(C)c1	-26.7%
C=CCn1c(C)csc1=Nc1ccc(C(C)=O)cc1	-18.4%
CC(C)OC(=O)CN1CCN(c2ccc(Cl)cc2)CC1	1.73%
C=CCNc1nc(N)c([N+](=O)[O-])c(NCc2ccccc2)n1	9.95%
Cc1cc(C(=O)NNC(=O)c2ccccc2[N+](=O)[O-])c(C)o1	11.2%
CCOc1cc(C)c(Cl)cc1S(=O)(=O)NCCOC	2.03%
COC(=O)C1=C(c2cc3ccccc3o2)C[C@@H]2CC[C@H]1N2C(=O)N1CCCC1	-6.09%
O=C(Cc1ccc([N+](=O)[O-])cc1)Nc1ccc(Cl)cc1	-0.617%
COc1ccc(-c2coc3cc(O)ccc3c2=O)cc1	-5.05%
Cc1cccc(C(=O)N/N=C2\CS(=O)(=O)N(C)c3ccsc32)c1	-6.06%
CC(NC(=O)CCN1C(=O)c2ccccc2C1=O)c1ccccc1 (centres unmarked)	12.7%
O=C(Nc1ccc(Sc2ccc(Br)cc2)cc1)c1ccco1	10.4%
COC(=O)c1ccc(OC)c(Cn2c(=O)n(C)c(=O)c3sccc32)c1	6.47%
C=C(C)c1cccc(C(C)(C)NC(=O)Nc2ccc(OC)nc2)c1	-23.3%
COc1ccc(OCC(O)CNC2CCCC2)cc1.Cl (centres unmarked)	12.8%
